# This is one part of the list.
# Assays:
# Test in all cases: glycan array binding signal (z-score within array); higher = stronger binding
# Settings in all cases: glycan notation: IUPAC condensed, linker removed
# Fuc(a1-2)Gal = target: Fuc(a1-2)Gal
# Outline: (§1)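 Negative Z-scores can be read as non-binding. The Z-score is calculated within each array and then averaged across arrays of one protein sequence at different concentrations or buffers and across linkers. Arrays, 3228 in all, were curated from the Consortium for Functional Glycomics database and kept only where the protein sequence was available.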
# Fuc(a1-2)Gal(b1-3)GalNAc = target: Fuc(a1-2)Gal(b1-3)GalNAc
# Outline: as §1
# [1] = target: Fuc(a1-2)Gal(b1-3)GalNAc(b1-3)Gal
# Outline: as §1
# [2] = target: Fuc(a1-2)Gal(b1-3)GalNAc(b1-3)Gal(a1-4)Gal(b1-4)Glc
# Outline: as §1
# [3] = target: Fuc(a1-2)Gal(b1-3)GalNAc(b1-3)Gal(b1-4)Glc
# Outline: as §1
# [4] = target: Fuc(a1-2)Gal(b1-3)GalNAc(b1-4)[Neu5Ac(a2-3)]Gal(b1-4)Glc
# Outline: as §1
# [5] = target: Fuc(a1-2)Gal(b1-3)[Fuc(a1-4)]GlcNAc
# Outline: as §1
# Fuc(a1-2)Gal(b1-4)Glc = target: Fuc(a1-2)Gal(b1-4)Glc
# Outline: as §1
# Fuc(a1-2)Gal(b1-4)GlcNAc = target: Fuc(a1-2)Gal(b1-4)GlcNAc
# Outline: as §1
# [6] = target: Fuc(a1-2)Gal(b1-4)GlcNAc(b1-3)Gal(b1-4)GlcNAc
# Outline: as §1
# [7] = target: Fuc(a1-2)Gal(b1-4)GlcNAc(b1-3)Gal(b1-4)GlcNAc(b1-3)Gal(b1-4)GlcNAc
# Outline: as §1
# [8] = target: Fuc(a1-2)Gal(b1-4)[Fuc(a1-3)]GalNAc(b1-3)Gal(b1-4)[Fuc(a1-3)]GlcNAc
# Outline: as §1
# [9] = target: Fuc(a1-2)Gal(b1-4)[Fuc(a1-3)]GalNAc(b1-3)Gal(b1-4)[Fuc(a1-3)]GlcNAc(b1-3)Gal(b1-4)[Fuc(a1-3)]GalNAc
# Outline: as §1
# [10] = target: Fuc(a1-2)Gal(b1-4)[Fuc(a1-3)]GlcNAc
# Outline: as §1
# Fuc(a1-2)GlcNAc = target: Fuc(a1-2)GlcNAc
# Outline: as §1
# Fuc(a1-2)[Gal(a1-3)]Gal = target: Fuc(a1-2)[Gal(a1-3)]Gal
# Outline: as §1
# [11] = target: Fuc(a1-2)[Gal(a1-3)]Gal(b1-3)GlcNAc
# Outline: as §1
# [12] = target: Fuc(a1-2)[Gal(a1-3)]Gal(b1-4)Glc
# Outline: as §1
# [13] = target: Fuc(a1-2)[Gal(a1-3)]Gal(b1-4)GlcNAc
# Outline: as §1
# [14] = target: Fuc(a1-2)[Gal(a1-3)]Gal(b1-4)[Fuc(a1-3)]GlcNAc
# Outline: as §1
# [15] = target: Fuc(a1-2)[Gal(a1-4)]Gal(b1-4)GalNAc
# Outline: as §1
# [16] = target: Fuc(a1-2)[GalNAc(a1-3)]Gal
# Outline: as §1
# [17] = target: Fuc(a1-2)[GalNAc(a1-3)]Gal(b1-3)GlcNAc
# Outline: as §1
# [18] = target: Fuc(a1-2)[GalNAc(a1-3)]Gal(b1-4)Glc
# Outline: as §1
# [19] = target: Fuc(a1-2)[GalNAc(a1-3)]Gal(b1-4)GlcNAc
# Outline: as §1
# [20] = target: Fuc(a1-2)[GalNAc(a1-3)]Gal(b1-4)[Fuc(a1-3)]GlcNAc
# Outline: as §1
# [21] = target: Fuc(a1-2)[GalNAc(a1-4)]Gal(b1-4)GlcNAc
# Outline: as §1
# Fuc(a1-3)GlcNAc = target: Fuc(a1-3)GlcNAc
# Outline: as §1
# [22] = target: Fuc(a1-3)[Gal(b1-4)]GlcNAc
# Outline: as §1
# [23] = target: Fuc(a1-3)[Gal(b1-4)]GlcNAc(b1-4)Gal(b1-4)[Fuc(a1-3)]GlcNAc
# Outline: as §1
# [24] = target: Fuc(a1-3)[Gal(b1-4)]GlcNAc(b1-4)Gal(b1-4)[Fuc(a1-3)]GlcNAc(b1-4)Gal(b1-4)[Fuc(a1-3)]GlcNAc
# Outline: as §1
# [25] = target: Fuc(a1-3)[Gal3S(b1-4)]GlcNAc
# Outline: as §1
# [26] = target: Fuc(a1-3)[GalNAc(b1-4)]Gal(b1-4)GlcNAc
# Outline: as §1
# Fuc(a1-4)GlcNAc = target: Fuc(a1-4)GlcNAc
# Outline: as §1
# Fuc(b1-3)GlcNAc = target: Fuc(b1-3)GlcNAc
# Outline: as §1
# Gal(a1-2)Gal = target: Gal(a1-2)Gal
# Outline: as §1
# Gal(a1-3)Gal = target: Gal(a1-3)Gal
# Outline: as §1
# Gal(a1-3)Gal(b1-3)Glc = target: Gal(a1-3)Gal(b1-3)Glc
# Outline: as §1
# Gal(a1-3)Gal(b1-3)GlcNAc = target: Gal(a1-3)Gal(b1-3)GlcNAc
# Outline: as §1
# Gal(a1-3)Gal(b1-4)GlcNAc = target: Gal(a1-3)Gal(b1-4)GlcNAc
# Outline: as §1
# [27] = target: Gal(a1-3)Gal(b1-4)[Fuc(a1-3)]GalNAc
# Outline: as §1
# Gal(a1-3)GlcNAc = target: Gal(a1-3)GlcNAc
# Outline: as §1
# [28] = target: Gal(a1-3)[Gal(a1-4)]Gal(b1-4)GlcNAc
# Outline: as §1
# Gal(a1-4)Gal(b1-4)Gal = target: Gal(a1-4)Gal(b1-4)Gal
# Outline: as §1
# Gal(a1-4)Gal(b1-4)GalNAc = target: Gal(a1-4)Gal(b1-4)GalNAc
# Outline: as §1
# Gal(a1-4)GlcNAc = target: Gal(a1-4)GlcNAc
# Outline: as §1
# Gal(a1-6)Glc = target: Gal(a1-6)Glc
# Outline: as §1
# Gal(b1-2)Gal = target: Gal(b1-2)Gal
# Outline: as §1
# Gal(b1-3)Gal = target: Gal(b1-3)Gal
# Outline: as §1
# Gal(b1-3)GalNAc = target: Gal(b1-3)GalNAc
# Outline: as §1
# [29] = target: Gal(b1-3)GalNAc(b1-3)Gal(a1-4)Gal(b1-4)Glc
# Outline: as §1
# [30] = target: Gal(b1-3)GalNAc(b1-3)Gal(b1-4)Glc
# Outline: as §1
# [31] = target: Gal(b1-3)GalNAc(b1-3)Gal(b1-4)GlcNAc
# Outline: as §1
# [32] = target: Gal(b1-3)GalNAc(b1-4)Gal(b1-4)Glc
# Outline: as §1
# [33] = target: Gal(b1-3)GalNAc(b1-4)[Neu5Ac(a2-3)]Gal(b1-4)Glc
# Outline: as §1
# [34] = target: Gal(b1-3)[Fuc(a1-4)]GlcNAc
# Outline: as §1
# [35] = target: Gal(b1-3)[Fuc(a1-4)]GlcNAc(b1-3)Gal(b1-4)GlcNAc
# Outline: as §1
# [36] = target: Gal(b1-3)[Fuc(a1-4)]GlcNAc(b1-3)Gal(b1-4)[Fuc(a1-3)]GlcNAc
# Outline: as §1
# [37] = target: Gal(b1-3)[GlcNAc(b1-6)]GalNAc
# Outline: as §1
# [38] = target: Gal(b1-3)[GlcNAc(b1-6)]GlcNAc
# Outline: as §1
binder,measurement,setting,value
"RNase 1 (Bos taurus), P61823 (protein) MALKSLVLLSLLVLVLLLVRVQPSLGKETAAAKFERQHMDSSTSAASSSNYCNQMMKSRNLTKDRCKPVNTFVHESLADVQAVCSQKNVACKNGQTNCYQSYSTMSITDCRETGSSKYPNCAYKTTQANKHIIVACEGNPYVPVHFDASV",glycan array binding signal (z-score),Fuc(a1-2)Gal,-0.156
same,glycan array binding signal (z-score),Fuc(a1-2)Gal(b1-3)GalNAc,-0.157
same,glycan array binding signal (z-score),[1],-0.195
same,glycan array binding signal (z-score),[2],1.93
same,glycan array binding signal (z-score),[3],-0.138
same,glycan array binding signal (z-score),[4],-0.19
same,glycan array binding signal (z-score),[5],-0.174
same,glycan array binding signal (z-score),Fuc(a1-2)Gal(b1-4)Glc,-0.104
same,glycan array binding signal (z-score),Fuc(a1-2)Gal(b1-4)GlcNAc,-0.178
same,glycan array binding signal (z-score),[6],-0.225
same,glycan array binding signal (z-score),[7],-0.177
same,glycan array binding signal (z-score),[8],-0.193
same,glycan array binding signal (z-score),[9],-0.138
same,glycan array binding signal (z-score),[10],-0.212
same,glycan array binding signal (z-score),Fuc(a1-2)GlcNAc,-0.17
same,glycan array binding signal (z-score),Fuc(a1-2)[Gal(a1-3)]Gal,-0.14
same,glycan array binding signal (z-score),[11],-0.126
same,glycan array binding signal (z-score),[12],-0.211
same,glycan array binding signal (z-score),[13],-0.134
same,glycan array binding signal (z-score),[14],-0.168
same,glycan array binding signal (z-score),[15],0.238
same,glycan array binding signal (z-score),[16],-0.151
same,glycan array binding signal (z-score),[17],-0.241
same,glycan array binding signal (z-score),[18],-0.171
same,glycan array binding signal (z-score),[19],-0.167
same,glycan array binding signal (z-score),[20],-0.057
same,glycan array binding signal (z-score),[21],-0.213
same,glycan array binding signal (z-score),Fuc(a1-3)GlcNAc,-0.013
same,glycan array binding signal (z-score),[22],-0.227
same,glycan array binding signal (z-score),[23],-0.08
same,glycan array binding signal (z-score),[24],-0.074
same,glycan array binding signal (z-score),[25],-0.168
same,glycan array binding signal (z-score),[26],-0.22
same,glycan array binding signal (z-score),Fuc(a1-4)GlcNAc,-0.217
same,glycan array binding signal (z-score),Fuc(b1-3)GlcNAc,-0.234
same,glycan array binding signal (z-score),Gal(a1-2)Gal,-0.153
same,glycan array binding signal (z-score),Gal(a1-3)Gal,-0.208
same,glycan array binding signal (z-score),Gal(a1-3)Gal(b1-3)Glc,-0.212
same,glycan array binding signal (z-score),Gal(a1-3)Gal(b1-3)GlcNAc,-0.213
same,glycan array binding signal (z-score),Gal(a1-3)Gal(b1-4)GlcNAc,-0.254
same,glycan array binding signal (z-score),[27],-0.199
same,glycan array binding signal (z-score),Gal(a1-3)GlcNAc,-0.175
same,glycan array binding signal (z-score),[28],-0.158
same,glycan array binding signal (z-score),Gal(a1-4)Gal(b1-4)Gal,7.93
same,glycan array binding signal (z-score),Gal(a1-4)Gal(b1-4)GalNAc,8.87
same,glycan array binding signal (z-score),Gal(a1-4)GlcNAc,-0.225
same,glycan array binding signal (z-score),Gal(a1-6)Glc,0.634
same,glycan array binding signal (z-score),Gal(b1-2)Gal,0
same,glycan array binding signal (z-score),Gal(b1-3)Gal,-0.006
same,glycan array binding signal (z-score),Gal(b1-3)GalNAc,-0.191
same,glycan array binding signal (z-score),[29],0.495
same,glycan array binding signal (z-score),[30],0.641
same,glycan array binding signal (z-score),[31],-0.176
same,glycan array binding signal (z-score),[32],-0.202
same,glycan array binding signal (z-score),[33],0.026
same,glycan array binding signal (z-score),[34],-0.204
same,glycan array binding signal (z-score),[35],-0.135
same,glycan array binding signal (z-score),[36],-0.114
same,glycan array binding signal (z-score),[37],-0.236
same,glycan array binding signal (z-score),[38],-0.197
